Hit rate of the full screen: of about 310,000 compounds, about 2,200 (0.71%) showed an effect of 50% or more. Effects have a minus sign here. This is one part of the list.
Each molecule was assayed against human ether-à-go-go-related gene (hERG) potassium channel (human, UniProt Q12809) (assay: primary screen, population patch clamp on CHO cells stably expressing hERG).
Sequence of human ether-à-go-go-related gene (hERG) potassium channel (Q12809 whole entry, looked up): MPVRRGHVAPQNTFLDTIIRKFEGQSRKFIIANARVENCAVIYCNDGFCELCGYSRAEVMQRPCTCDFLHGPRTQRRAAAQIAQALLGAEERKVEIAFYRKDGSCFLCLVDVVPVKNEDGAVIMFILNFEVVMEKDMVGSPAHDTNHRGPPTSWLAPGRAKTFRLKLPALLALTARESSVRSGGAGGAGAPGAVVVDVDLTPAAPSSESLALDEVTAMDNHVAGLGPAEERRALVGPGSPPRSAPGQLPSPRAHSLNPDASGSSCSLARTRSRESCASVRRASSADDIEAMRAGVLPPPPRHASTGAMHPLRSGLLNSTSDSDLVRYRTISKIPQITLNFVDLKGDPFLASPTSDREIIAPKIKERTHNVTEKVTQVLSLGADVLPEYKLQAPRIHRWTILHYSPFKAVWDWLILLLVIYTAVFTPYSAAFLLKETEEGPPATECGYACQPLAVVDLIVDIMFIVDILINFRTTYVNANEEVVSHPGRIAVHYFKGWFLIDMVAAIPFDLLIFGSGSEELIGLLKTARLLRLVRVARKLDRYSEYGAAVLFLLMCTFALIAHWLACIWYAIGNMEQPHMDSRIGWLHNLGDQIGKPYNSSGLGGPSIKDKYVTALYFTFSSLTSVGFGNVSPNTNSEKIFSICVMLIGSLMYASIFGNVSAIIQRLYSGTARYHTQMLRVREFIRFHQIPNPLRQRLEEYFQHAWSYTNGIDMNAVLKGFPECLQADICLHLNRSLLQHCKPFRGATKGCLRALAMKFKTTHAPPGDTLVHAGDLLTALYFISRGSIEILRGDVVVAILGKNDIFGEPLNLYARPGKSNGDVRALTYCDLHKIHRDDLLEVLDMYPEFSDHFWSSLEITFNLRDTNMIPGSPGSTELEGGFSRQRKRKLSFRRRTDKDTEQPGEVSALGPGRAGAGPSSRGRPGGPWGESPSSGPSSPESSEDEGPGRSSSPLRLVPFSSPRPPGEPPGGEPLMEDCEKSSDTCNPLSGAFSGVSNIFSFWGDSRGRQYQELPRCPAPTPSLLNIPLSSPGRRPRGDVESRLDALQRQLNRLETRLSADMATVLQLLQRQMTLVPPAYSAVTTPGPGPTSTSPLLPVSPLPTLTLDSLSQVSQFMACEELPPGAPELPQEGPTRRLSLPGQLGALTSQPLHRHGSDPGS
In the case of Cc1ccc2c(CC(=O)Nc3nc(C)cs3)coc2c1, the “hERG current change (%, negative = inhibition) at 1uM” value is reported as 10.1%. With Cc1cc(C)n2nc(SCCOc3ccccc3F)nc2n1 the “hERG current change (%, negative = inhibition) at 1uM” value was 2.42%. For O=C(O[C@H]1[C@H](Cc2ccccc2)NS(=O)(=O)[C@H]2C[C@@H]3C=C[C@]12O3)c1ccc([N+](=O)[O-])cc1, the “hERG current change (%, negative = inhibition) at 1uM” value was 8.3%. In the case of COc1ccc(-c2noc(CN(C)CCC3CCCCO3)n2)cc1 (stereo not shown), the “hERG current change (%, negative = inhibition) at 1uM” value is reported as 7.94%. CCN(C(=O)CSc1nnc(-c2ccc(OC(F)F)cc2)n1N)C1CCS(=O)(=O)C1 (stereo not shown) was tested, and the “hERG current change (%, negative = inhibition) at 1uM” value was -0.648%. O=c1c2ccccc2cnn1Cc1n[nH]c(=S)n1-c1ccc(F)c(Cl)c1 was tested, and the “hERG current change (%, negative = inhibition) at 1uM” value was 8.41%. With COc1ccc(C2/C(=C(/O)c3ccc4c(c3)CC(C)O4)C(=O)C(=O)N2CCCn2ccnc2)cc1 (stereo not shown) the “hERG current change (%, negative = inhibition) at 1uM” value was 13.6%. COc1ccc2nc(NC(=O)c3ccccc3-c3ccccc3C(=O)O)sc2c1 was tested, and the “hERG current change (%, negative = inhibition) at 1uM” value was 12%. O=C(c1cccc(COc2cccc3ccccc23)c1)N1CCCC1 was tested, and the “hERG current change (%, negative = inhibition) at 1uM” value was 13.9%. COc1cccc(C(=O)NCc2ccc(-c3nc4ccccc4s3)cc2)c1 was tested, and the “hERG current change (%, negative = inhibition) at 1uM” value was 18.1%. In the case of O=C(CC1C(=O)NCCN1C(=O)Nc1ccccc1)Nc1cc(Cl)cc(Cl)c1 (stereo not shown), the “hERG current change (%, negative = inhibition) at 1uM” value is reported as 15.4%. For COc1ccc(-n2nc3c(c2NC(=O)c2ccco2)CS(=O)(=O)C3)cc1, the “hERG current change (%, negative = inhibition) at 1uM” value was 6.99%. With CSc1ccc(C(=O)C2CCCN(C(=O)CN3CCOC3=O)C2)cc1 (stereo not shown) the “hERG current change (%, negative = inhibition) at 1uM” value was 8.73%. O=C(NCc1ccco1)C1CCC(N2C(=O)c3ccccc3C2=O)CC1 (stereo not shown) was tested, and the “hERG current change (%, negative = inhibition) at 1uM” value was 5.32%. For Cc1ccc(-c2nnc(SCC(=O)Nc3ccc(N4CCOCC4)cc3)o2)cc1, the “hERG current change (%, negative = inhibition) at 1uM” value was 6.18%. With O=C(Nc1nnc(-c2ccco2)o1)c1cccc2ccccc12 the “hERG current change (%, negative = inhibition) at 1uM” value was -2.8%. For COC(=O)C1CCN(C(=O)C2CCN(C(=O)[C@@H](NS(=O)(=O)c3ccc(C)cc3)C(C)C)CC2)CC1, the “hERG current change (%, negative = inhibition) at 1uM” value was 8.23%. In the case of Cc1ccc(S(=O)(=O)CC(=O)Nc2ccc(S(=O)(=O)Nc3onc(C)c3C)cc2)cc1, the “hERG current change (%, negative = inhibition) at 1uM” value is reported as 8.17%. In the case of O=C(COC(=O)CCc1ccc(S(=O)(=O)N2CCOCC2)cc1)Nc1ccc(Cl)cn1, the “hERG current change (%, negative = inhibition) at 1uM” value is reported as -2.33%. For COc1ccc2c(c1)nc(SCC(C)O)n2C (stereo not shown), the “hERG current change (%, negative = inhibition) at 1uM” value was 11.7%. With Cc1cc(C)nc(CCNC(=O)CC2C(=O)NCCN2Cc2ccc(F)cc2Cl)n1 (stereo not shown) the “hERG current change (%, negative = inhibition) at 1uM” value was 16%. For CC(C)N(c1ccccc1)c1ccc(NC(=O)C2CCCO2)cc1 (stereo not shown), the “hERG current change (%, negative = inhibition) at 1uM” value was 4.59%. Cc1ccnc(NC(=O)c2ccc3[nH]c(=O)c(=O)[nH]c3c2)c1 was tested, and the “hERG current change (%, negative = inhibition) at 1uM” value was 10.4%. For C/C(=N\NC(=O)c1nnn(-c2nonc2N)c1-c1cccs1)c1ccc(O)cc1, the “hERG current change (%, negative = inhibition) at 1uM” value was -5.85%. CCOC(=O)C1=C(C)N=C2SC(C(=O)OC)=CC(=O)N2C1c1cc(OC)c(OC)c(OC)c1 (stereo not shown) was tested, and the “hERG current change (%, negative = inhibition) at 1uM” value was 10.1%. O=C(COc1ccccc1F)N1CCN(S(=O)(=O)/C=C/c2ccccc2)CC1 was tested, and the “hERG current change (%, negative = inhibition) at 1uM” value was 6.47%. In the case of O=C(Cc1ccc(Cl)cc1)NC1CCS(=O)(=O)C1 (stereo not shown), the “hERG current change (%, negative = inhibition) at 1uM” value is reported as -9.77%. With COC(=O)CNC(=O)C1(C)C=CCN1C(=O)c1ccccc1 (stereo not shown) the “hERG current change (%, negative = inhibition) at 1uM” value was 21.8%. For CCC1Oc2ccccc2N(CC(=O)NCCCN2CCCC2)C1=O (stereo not shown), the “hERG current change (%, negative = inhibition) at 1uM” value was 11.3%. In the case of COc1ccc(/C=C/C(=O)Nc2ccccc2C(=O)NCC(c2ccc(OC)cc2)N(C)C)cc1 (stereo not shown), the “hERG current change (%, negative = inhibition) at 1uM” value is reported as 9.87%. With Cc1ccc(S(=O)(=O)c2c(C)nn(C(C)(C)C)c2OC(=O)CC(C)C)cc1 the “hERG current change (%, negative = inhibition) at 1uM” value was 3.64%. CCOC(=O)c1c(-c2ccc(OC)cc2)cn2ccccc12 was tested, and the “hERG current change (%, negative = inhibition) at 1uM” value was 3.13%. In the case of O=C(NCC1CCS(=O)(=O)C1)NCC1CCS(=O)(=O)C1 (stereo not shown), the “hERG current change (%, negative = inhibition) at 1uM” value is reported as 12.8%. CCOc1ccccc1N(CC(=O)OC)S(C)(=O)=O was tested, and the “hERG current change (%, negative = inhibition) at 1uM” value was 11.4%. Nc1nc(Br)c2ccccc2c1-c1ccc(F)cc1 was tested, and the “hERG current change (%, negative = inhibition) at 1uM” value was -4.11%. Cc1nnc(NC(=O)c2ccc(C)c(S(=O)(=O)N3CCCCCC3)c2)s1 was tested, and the “hERG current change (%, negative = inhibition) at 1uM” value was 18.4%. With O=S(=O)(c1ccc(Cl)cc1)N1CCC2(CC1)CO2 the “hERG current change (%, negative = inhibition) at 1uM” value was 4.61%. In the case of Cc1cc(NC(c2ccc(Cl)cc2)c2ccc3cccnc3c2O)no1 (stereo not shown), the “hERG current change (%, negative = inhibition) at 1uM” value is reported as 6.49%. In the case of O=C(c1cn(CC(=O)N2CCCCC2)c2ccccc12)C1CC1, the “hERG current change (%, negative = inhibition) at 1uM” value is reported as 17.5%. With CCn1ccnc1C(O)c1cccc(OC)c1OC (stereo not shown) the “hERG current change (%, negative = inhibition) at 1uM” value was 12.8%. C=CCNC(=S)Nc1ccccc1 was tested, and the “hERG current change (%, negative = inhibition) at 1uM” value was -4.74%. In the case of O=C(CCOc1ccccc1F)N1CCN(c2ccccc2O)CC1, the “hERG current change (%, negative = inhibition) at 1uM” value is reported as 7.54%. For COc1cc(-c2nnc(SC(C)C(=O)Nc3c(C)n(C)n(-c4ccccc4)c3=O)o2)cc(OC)c1OC (stereo not shown), the “hERG current change (%, negative = inhibition) at 1uM” value was -4.78%. CCN(CC)CCNC(=O)c1sc2nc(-c3ccccc3)cn2c1C was tested, and the “hERG current change (%, negative = inhibition) at 1uM” value was -31.8%. In the case of Cc1ncc(CN2CCCC(C(=O)c3ccc(C(C)(C)C)cc3)C2)s1 (stereo not shown), the “hERG current change (%, negative = inhibition) at 1uM” value is reported as -43.4%. For COc1cccc(CNC(=O)CCCSc2ccccc2)c1, the “hERG current change (%, negative = inhibition) at 1uM” value was 8.06%. For NC(=O)C1CCN(CC(=O)Nc2cc(Cl)ccc2Oc2ccccc2)CC1, the “hERG current change (%, negative = inhibition) at 1uM” value was -42.9%. With O=C1OCCC1Sc1nnc(-c2ccc3c(c2)OCO3)o1 (stereo not shown) the “hERG current change (%, negative = inhibition) at 1uM” value was 13.8%. COCCN(C(=O)Nc1ccc(OC)cc1OC)C1CCN(C(C)=O)CC1 was tested, and the “hERG current change (%, negative = inhibition) at 1uM” value was 3.49%. In the case of O=C(Cn1cnc2sc3c(c2c1=O)CCCC3)NCCC(=O)N1CCC2(CC1)OCCO2, the “hERG current change (%, negative = inhibition) at 1uM” value is reported as -7.36%. With O=C(Nc1c2c(nn1-c1ccccc1)CS(=O)(=O)C2)c1ccco1 the “hERG current change (%, negative = inhibition) at 1uM” value was -5.68%. In the case of O=C(Nc1ccc(Cl)cc1F)c1cc(S(=O)(=O)N2CCCCC2)ccc1F, the “hERG current change (%, negative = inhibition) at 1uM” value is reported as 3.14%. With O=C(Nc1ccc(F)cc1)N1CCC(c2nc3c(nnn3Cc3cccc(Cl)c3)c(=O)[nH]2)CC1 the “hERG current change (%, negative = inhibition) at 1uM” value was -2.86%. For COc1ccc(S(=O)(=O)N(C)CC(=O)N2CCN(C)CC2)cc1Cl, the “hERG current change (%, negative = inhibition) at 1uM” value was 8.72%. With CC(C)c1ccc(N(C(=O)c2ccc3c(c2)OCO3)C2C=CS(=O)(=O)C2)cc1 (stereo not shown) the “hERG current change (%, negative = inhibition) at 1uM” value was -26.8%.

Reference: publication PMC4336329 (PLoS ONE, 2015)
